# Source: the supplement of paper PMC8728848
# This is one part of the list.
# Tests used:
# Assay in all cases: glycan array binding signal (z-score within array); higher = stronger binding
# Details in all cases: glycan notation: IUPAC condensed, linker removed
# [1] = molecular target: Fuc(a1-2)[GalNAc(a1-3)]Gal(b1-3)GlcNAc(b1-2)Man(a1-3)[Fuc(a1-2)[GalNAc(a1-3)]Gal(b1-3)GlcNAc(b1-2)Man(a1-6)]Man(b1-4)GlcNAc(b1-4)[Fuc(a1-6)]GlcNAc
# Procedure, shortened: (§1)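 Columns mapping to the same glycan were averaged after glycan names were converted to IUPAC-condensed notation. The data come from 3228 arrays in the Consortium for Functional Glycomics database, limited to those with an available protein sequence. Binding is reported as a within-array Z-score averaged across arrays of one protein sequence and across linkers.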
# [2] = molecular target: Fuc(a1-2)[GalNAc(a1-3)]Gal(b1-3)GlcNAc(b1-3)GalNAc
# Procedure, shortened: as §1
# [3] = molecular target: Fuc(a1-2)[GalNAc(a1-3)]Gal(b1-3)GlcNAc(b1-6)GalNAc
# Procedure, shortened: as §1
# [4] = molecular target: Fuc(a1-2)[GalNAc(a1-3)]Gal(b1-4)Glc
# Procedure, shortened: as §1
# [5] = molecular target: Fuc(a1-2)[GalNAc(a1-3)]Gal(b1-4)GlcNAc
# Procedure, shortened: as §1
# [6] = molecular target: Fuc(a1-2)[GalNAc(a1-3)]Gal(b1-4)GlcNAc(b1-2)Man
# Procedure, shortened: as §1
# [7] = molecular target: Fuc(a1-2)[GalNAc(a1-3)]Gal(b1-4)GlcNAc(b1-2)Man(a1-3)[Fuc(a1-2)[GalNAc(a1-3)]Gal(b1-4)GlcNAc(b1-2)Man(a1-6)]Man(b1-4)GlcNAc(b1-4)GlcNAc
# Procedure, shortened: as §1
# [8] = molecular target: Fuc(a1-2)[GalNAc(a1-3)]Gal(b1-4)GlcNAc(b1-2)Man(a1-3)[Fuc(a1-2)[GalNAc(a1-3)]Gal(b1-4)GlcNAc(b1-2)Man(a1-6)]Man(b1-4)GlcNAc(b1-4)[Fuc(a1-6)]GlcNAc
# Procedure, shortened: as §1
# [9] = molecular target: Fuc(a1-2)[GalNAc(a1-3)]Gal(b1-4)GlcNAc(b1-3)Gal(b1-4)GlcNAc
# Procedure, shortened: as §1
# [10] = molecular target: Fuc(a1-2)[GalNAc(a1-3)]Gal(b1-4)GlcNAc(b1-3)Gal(b1-4)GlcNAc(b1-3)Gal(b1-4)GlcNAc
# Procedure, shortened: as §1
# [11] = molecular target: Fuc(a1-2)[GalNAc(a1-3)]Gal(b1-4)GlcNAc(b1-3)GalNAc
# Procedure, shortened: as §1
# [12] = molecular target: Fuc(a1-2)[GalNAc(a1-3)]Gal(b1-4)GlcNAc(b1-3)[Fuc(a1-2)[GalNAc(a1-3)]Gal(b1-4)GlcNAc(b1-6)]GalNAc
# Procedure, shortened: as §1
# [13] = molecular target: Fuc(a1-2)[GalNAc(a1-3)]Gal(b1-4)GlcNAc(b1-6)GalNAc
# Procedure, shortened: as §1
# [14] = molecular target: Fuc(a1-2)[GalNAc(a1-3)]Gal(b1-4)[Fuc(a1-3)]GlcNAc
# Procedure, shortened: as §1
# [15] = molecular target: Fuc(a1-2)[GalNAc(a1-3)]Gal(b1-4)[Fuc(a1-3)]GlcNAc(b1-3)GalNAc
# Procedure, shortened: as §1
# [16] = molecular target: Fuc(a1-2)[GalNAc(a1-4)]Gal(b1-4)GlcNAc
# Procedure, shortened: as §1
# [17] = molecular target: Fuc(a1-2)[GalNAc(b1-3)]Gal
# Procedure, shortened: as §1
# Fuc(a1-3)GlcNAc = molecular target: Fuc(a1-3)GlcNAc
# Procedure, shortened: as §1
# [18] = molecular target: Fuc(a1-3)[Gal(b1-4)]Glc6S
# Procedure, shortened: as §1
# [19] = molecular target: Fuc(a1-3)[Gal(b1-4)]GlcNAc
# Procedure, shortened: as §1
# [20] = molecular target: Fuc(a1-3)[Gal(b1-4)]GlcNAc(b1-2)Man
# Procedure, shortened: as §1
# [21] = molecular target: Fuc(a1-3)[Gal(b1-4)]GlcNAc(b1-2)Man(a1-3)[Fuc(a1-3)[Gal(b1-4)]GlcNAc(b1-2)Man(a1-6)]Man(b1-4)GlcNAc(b1-4)GlcNAc
# Procedure, shortened: as §1
# [22] = molecular target: Fuc(a1-3)[Gal(b1-4)]GlcNAc(b1-2)Man(a1-3)[Fuc(a1-3)[Gal(b1-4)]GlcNAc(b1-2)Man(a1-6)]Man(b1-4)GlcNAc(b1-4)[Fuc(a1-6)]GlcNAc
# Procedure, shortened: as §1
# [23] = molecular target: Fuc(a1-3)[Gal(b1-4)]GlcNAc(b1-3)Gal(b1-3)[Fuc(a1-4)]GlcNAc
# Procedure, shortened: as §1
# [24] = molecular target: Fuc(a1-3)[Gal(b1-4)]GlcNAc(b1-3)Gal(b1-4)[Fuc(a1-3)]GlcNAc
# Procedure, shortened: as §1
# [25] = molecular target: Fuc(a1-3)[Gal(b1-4)]GlcNAc(b1-3)Gal(b1-4)[Fuc(a1-3)]GlcNAc(b1-3)Gal(b1-4)[Fuc(a1-3)]GlcNAc
# Procedure, shortened: as §1
# [26] = molecular target: Fuc(a1-3)[Gal(b1-4)]GlcNAc(b1-3)GalNAc
# Procedure, shortened: as §1
# [27] = molecular target: Fuc(a1-3)[Gal(b1-4)]GlcNAc(b1-6)GalNAc
# Procedure, shortened: as §1
# [28] = molecular target: Fuc(a1-3)[Gal(b1-4)]GlcNAc(b1-6)[Gal(b1-3)GlcNAc(b1-3)]Gal(b1-4)Glc
# Procedure, shortened: as §1
# [29] = molecular target: Fuc(a1-3)[Gal(b1-4)]GlcNAc6S
# Procedure, shortened: as §1
# [30] = molecular target: Fuc(a1-3)[Gal3S(b1-4)]Glc
# Procedure, shortened: as §1
# [31] = molecular target: Fuc(a1-3)[Gal3S(b1-4)]GlcNAc
# Procedure, shortened: as §1
# [32] = molecular target: Fuc(a1-3)[Gal3S(b1-4)]GlcNAc6S
# Procedure, shortened: as §1
# [33] = molecular target: Fuc(a1-3)[GalNAc(b1-4)]GlcNAc
# Procedure, shortened: as §1
# [34] = molecular target: Fuc(a1-3)[GalNAc(b1-4)]GlcNAc6S
# Procedure, shortened: as §1
# Fuc(a1-4)GlcNAc = molecular target: Fuc(a1-4)GlcNAc
# Procedure, shortened: as §1
# Fuc(b1-3)GlcNAc = molecular target: Fuc(b1-3)GlcNAc
# Procedure, shortened: as §1
# Gal(a1-2)Gal = molecular target: Gal(a1-2)Gal
# Procedure, shortened: as §1
# Gal(a1-3)Gal = molecular target: Gal(a1-3)Gal
# Procedure, shortened: as §1
# Gal(a1-3)Gal(b1-3)GlcNAc = molecular target: Gal(a1-3)Gal(b1-3)GlcNAc
# Procedure, shortened: as §1
# [35] = molecular target: Gal(a1-3)Gal(b1-3)GlcNAc(b1-2)Man
# Procedure, shortened: as §1
# [36] = molecular target: Gal(a1-3)Gal(b1-3)GlcNAc(b1-2)Man(a1-3)[Gal(a1-3)Gal(b1-3)GlcNAc(b1-2)Man(a1-6)]Man(b1-4)GlcNAc(b1-4)GlcNAc
# Procedure, shortened: as §1
# [37] = molecular target: Gal(a1-3)Gal(b1-3)GlcNAc(b1-3)GalNAc
# Procedure, shortened: as §1
# [38] = molecular target: Gal(a1-3)Gal(b1-3)GlcNAc(b1-6)GalNAc
# Procedure, shortened: as §1
# [39] = molecular target: Gal(a1-3)Gal(b1-3)[Fuc(a1-4)]GlcNAc(b1-2)Man(a1-3)[Gal(a1-3)Gal(b1-3)[Fuc(a1-4)]GlcNAc(b1-2)Man(a1-6)]Man(b1-4)GlcNAc(b1-4)GlcNAc
# Procedure, shortened: as §1
binder,measurement,setting,value
"UDA (Urtica dioica), P11218 (protein) MMMRFLSAVVIMSSAMAVGLVSAQRCGSQGGGGTCPALWCCSIWGWCGDSEPYCGRTCENKCWSGERSDHRCGAAVGNPPCGQDRCCSVHGWCGGGNDYCSGSKCQYRCSSSVRGPRVALSGNSTANSIGNVVVTEPLFDQMFSHRKDCPSQGFYSYHSFLVAAESFPAFGTIGDVATRKREVAAFLAHISQATSGERSDVENPHAWGLCHINTTTVTENDFCTSSDWPCAAGKKYSPRGPIQLTHNFNYGLAGQAIGEDLIQNPDLVEKDPIISFKTALWFWMSQHDNKPSCHDIVLNANSAANRIPNKGVIGNIISRAFGHDDFAVRSSSIGFYKRYCDMLGVSYGHDLKYWFDNTPSSEFQRIQMRVAA",glycan array binding signal (z-score),[1],-0.153
same,glycan array binding signal (z-score),[2],-0.176
same,glycan array binding signal (z-score),[3],-0.178
same,glycan array binding signal (z-score),[4],-0.172
same,glycan array binding signal (z-score),[5],-0.131
same,glycan array binding signal (z-score),[6],-0.177
same,glycan array binding signal (z-score),[7],-0.165
same,glycan array binding signal (z-score),[8],-0.178
same,glycan array binding signal (z-score),[9],-0.054
same,glycan array binding signal (z-score),[10],0.024
same,glycan array binding signal (z-score),[11],-0.173
same,glycan array binding signal (z-score),[12],-0.18
same,glycan array binding signal (z-score),[13],-0.177
same,glycan array binding signal (z-score),[14],-0.157
same,glycan array binding signal (z-score),[15],-0.158
same,glycan array binding signal (z-score),[16],0.081
same,glycan array binding signal (z-score),[17],-0.189
same,glycan array binding signal (z-score),Fuc(a1-3)GlcNAc,-0.189
same,glycan array binding signal (z-score),[18],-0.169
same,glycan array binding signal (z-score),[19],-0.187
same,glycan array binding signal (z-score),[20],-0.181
same,glycan array binding signal (z-score),[21],-0.165
same,glycan array binding signal (z-score),[22],-0.17
same,glycan array binding signal (z-score),[23],-0.169
same,glycan array binding signal (z-score),[24],-0.183
same,glycan array binding signal (z-score),[25],-0.191
same,glycan array binding signal (z-score),[26],-0.175
same,glycan array binding signal (z-score),[27],-0.168
same,glycan array binding signal (z-score),[28],-0.172
same,glycan array binding signal (z-score),[29],-0.165
same,glycan array binding signal (z-score),[30],-0.17
same,glycan array binding signal (z-score),[31],-0.2
same,glycan array binding signal (z-score),[32],-0.173
same,glycan array binding signal (z-score),[33],-0.172
same,glycan array binding signal (z-score),[34],-0.177
same,glycan array binding signal (z-score),Fuc(a1-4)GlcNAc,-0.178
same,glycan array binding signal (z-score),Fuc(b1-3)GlcNAc,-0.19
same,glycan array binding signal (z-score),Gal(a1-2)Gal,-0.19
same,glycan array binding signal (z-score),Gal(a1-3)Gal,-0.189
same,glycan array binding signal (z-score),Gal(a1-3)Gal(b1-3)GlcNAc,-0.152
same,glycan array binding signal (z-score),[35],-0.183
same,glycan array binding signal (z-score),[36],-0.138
same,glycan array binding signal (z-score),[37],-0.177
same,glycan array binding signal (z-score),[38],-0.182
same,glycan array binding signal (z-score),[39],-0.091
